In patent US20260347469 (published 2026):

Target: 4-1BB-Fc (human, UniProt Q07011)
Test: BLI, 24C, avidity

Sequence of UniProt Q07011 (Q07011 24-186): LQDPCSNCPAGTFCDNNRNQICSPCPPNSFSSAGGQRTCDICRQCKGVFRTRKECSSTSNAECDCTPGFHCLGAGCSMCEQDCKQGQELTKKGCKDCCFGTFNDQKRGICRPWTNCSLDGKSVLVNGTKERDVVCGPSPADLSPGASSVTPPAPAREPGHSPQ

Row | Kd [pM] | Binder
1 | < 10 | A5 (protein) [about 200 residues omitted]GGGGSGGGGSGGGGSREGPELSPDDPAGLLDLRQGMFAQLVAQNVLLIDGPLSWYSDPGLAGVSLTGGLSYKEDTKELVVAKAGVYYVFFQLELRRVVAGEGSGSVSLALHLQPLRSAAGAAALALTVDLPPASSEARNSAFGFQGRLLHLSAGQRLGVHLHTEARARHAWQLTQGATVLGLFRVTPEIPAGLPSPRSEGGGGSGGGGSGGGGSREGPELSPDDPAGLLDLRQGMFAQLVAQNVLLIDGPLSWYSDPGLAGVSLTGGLSYKEDTKELVVAKAGVYYVFFQLELRRVVAGEGSGSVSLALHLQPLRSAAGAAALALTVDLPPASSEARNSAFGFQGRLLHLSAGQRLGVHLHTEARARHAWQLTQGATVLGLFRVTPEIPAGLPSPRSEGGGGSGGGGSGGGGS[about 150 residues omitted]
2 | < 10 | A6 (protein) [about 150 residues omitted]GGGGSGGGGSGGGGSREGPELSPDDPAGLLDLRQGMFAQLVAQNVLLIDGPLSWYSDPGLAGVSLTGGLSYKEDTKELVVAKAGVYYVFFQLELRRVVAGEGSGSVSLALHLQPLRSAAGAAALALTVDLPPASSEARNSAFGFQGRLLHLSAGQRLGVHLHTEARARHAWQLTQGATVLGLFRVTPEIPAGLPSPRSEGGGGSGGGGSGGGGSREGPELSPDDPAGLLDLRQGMFAQLVAQNVLLIDGPLSWYSDPGLAGVSLTGGLSYKEDTKELVVAKAGVYYVFFQLELRRVVAGEGSGSVSLALHLQPLRSAAGAAALALTVDLPPASSEARNSAFGFQGRLLHLSAGQRLGVHLHTEARARHAWQLTQGATVLGLFRVTPEIPAGLPSPRSEGGGGSGGGGSGGGGSREGPELSPDDPAGLLDLRQGMFAQLVAQNVLLIDGPLSWYSDPGLAGVSLTGGLSYKEDTKELVVAKAGVYYVFFQLELRRVVAGEGSGSVSLALHLQPLRSAAGAAALALTVDLPPASSEARNSAFGFQGRLLHLSAGQRLGVHLHTEARARHAWQLTQGATVLGLFRVTPEIPAGLPSPRSE
3 | < 10 | A9 (protein) [about 150 residues omitted]GGGGSGGGGSGGGGSARASPGSAASPRLREGPELSPDDPAGLLDLRQGMFAQLVAQNVLLIDGPLSWYSDPGLAGVSLTGGLSYKEDTKELVVAKAGVYYVFFQLELRRVVAGEGSGSVSLALHLQPLRSAAGAAALALTVDLPPASSEARNSAFGFQGRLLHLSAGQRLGVHLHTEARARHAWQLTQGATVLGLFRVTPEIPAGLPSPRSEGGGGSGGGGSGGGGSARASPGSAASPRLREGPELSPDDPAGLLDLRQGMFAQLVAQNVLLIDGPLSWYSDPGLAGVSLTGGLSYKEDTKELVVAKAGVYYVFFQLELRRVVAGEGSGSVSLALHLQPLRSAAGAAALALTVDLPPASSEARNSAFGFQGRLLHLSAGQRLGVHLHTEARARHAWQLTQGATVLGLFRVTPEIPAGLPSPRSEGGGGSGGGGSGGGGSARASPGSAASPRLREGPELSPDDPAGLLDLRQGMFAQLVAQNVLLIDGPLSWYSDPGLAGVSLTGGLSYKEDTKELVVAKAGVYYVFFQLELRRVVAGEGSGSVSLALHLQPLRSAAGAAALALTVDLPPASSEARNSAFGFQGRLLHLSAGQRLGVHLHTEARARHAWQLTQGATVLGLFRVTPEIPAGLPSPRSE
